This note sets out measurements from PubChem BioAssay AID1963576 (National Center for Advancing Translational Sciences (NCATS), 2024).

Structures are written as SMILES. Out of some 46,000 compounds screened, about 60 (0.1%) were called active. Another 3% or so got no clear call; they are omitted. The call rests on the fitted dose curve; in most records, active means well fitted inhibition curve with a large enough effect; inconclusive means small, poorly fitted or top-dose-only effect; inactive means no such curve, though single readings can be large or run the other way. The list shows a part of the results.

The experiment can be described thus: Primary qHTS assay for Inhibitors of ovarian cancer metastasis using an organotypic tumor microenvironment (TME) model. Further: nearly all actives have a fitted effect of over 65% in size.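 On activity change, negative = inhibition: plate controls were DMSO wells for no effect and tomatine positive control wells for full effect.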 Conditions: SKOV3ip1-GFP adhesion/invasion on 3D omental model, fluorescence; series mostly up to 45.8 µM; activity change, negative = inhibition: at the top concentration. In short, it runs like this:
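Adhesion/invasion was scored as fixed GFP-labeled SKOV3ip1 cell counts (488/509 nm), normalized to DMSO and tomatine controls. Cancer cells in serum-free medium, with four compound doses (0.36-46 umol/L), sat 2 hr at RT then 16 hr at 37 C on a 48 hr fibroblast/mesothelial/ECM culture.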
Background: qHTS replaces the single test concentration by a dilution series.
`CCOC(=O)N1CCc2c(sc3c2c(=O)n(-c2ccccc2C(F)(F)F)c(=O)n3Cc2ccccc2C)C1`: the result was inactive.
Take `Cc1ccc(NS(=O)(=O)c2ccc(-n3cccn3)cc2)cc1Cl`: the outcome was inactive.
As for `O=C(CSc1nnc2ccc3ccccc3n12)Nc1ccccc1Cl`, the “activity change, negative = inhibition” value is inactive: 2.28%.
Still for that read-out and setting: the result for `O=C(Cc1ccc(F)cc1)NCc1ccc2c(c1)CCN2C(=O)c1ccc(F)cc1` reads inactive: -7.09%.
For the molecule `CCOc1ccc(C2CC(c3c(O)n(C4CCCCC4)c(=O)[nH]c3=O)=Nc3ccccc3S2)cc1` (stereo not given), the call was inactive.
`Cc1ccc2nc(COc3ccccc3NC(=O)C(C)(C)C)cc(=O)n2c1`: the “activity change, negative = inhibition” value is inactive: 22.9%.
The same measure, in the same setting: the result for `O=C(Nc1sc2c(c1C(=O)NCc1cccnc1)CCCC2)c1cc(=O)c2ccccc2o1` reads inactive: 20.5%.
Still for that read-out and setting: the same measure for `Cc1ccc(CCNC(=O)c2cc3c(s2)-c2c(C)cccc2OC3)cc1`: inactive: -20.1%.
For `COc1cccc(CNC(=O)c2ccc(-c3nc(COc4ccccc4)c(C)o3)cc2)c1`, the molecule was called inactive.
As to `COc1cccc2c1cc1c(=O)n(CC(=O)NCc3ccc(C)o3)nc(C)n12`, the “activity change, negative = inhibition” value is inactive: -2.5%.
Turning to `COC(=O)c1cc2oc3ccccc3c2n1CC(=O)Nc1ccc(Cl)cc1F`, the call was inactive.
Regarding `COc1cccc(-n2c(SCC(=O)Nc3c(C)cc(C)cc3C)nc3c([nH]c4ccccc43)c2=O)c1`, the “activity change, negative = inhibition” value was inactive: -16.1%.
On to `CCn1c(=O)cc(SCC(=O)NCc2ccc(OC)cc2OC)c2ccccc21`, for which the “activity change, negative = inhibition” value was inactive: -27.5%.
The same measure, in the same setting: the same measure for `Cc1nn(C(=O)c2cccc(Cl)c2)c(C)c1S(=O)(=O)N1CCOCC1`: inactive: 10.1%.
In the case of `COc1ccc(OC)c(NC(=O)CSc2ccc(-c3sc(C)nc3C)nn2)c1`, the “activity change, negative = inhibition” value is inactive: -2.06%.
For `O=C(COc1ccc(Cl)cc1)Nc1ccc2nc(SCC(=O)N3CCCC3)sc2c1`, the molecule was called inactive.
Regarding `COc1ccc(CCNC(=O)c2ccc3c(c2)N(Cc2ccc(F)cc2)C(=O)CS3)cc1OC`, the “activity change, negative = inhibition” value is inactive: 9.28%.
With `Cc1cccc(-c2nc(CCNC(=O)Cc3ccccc3)cs2)c1`, the molecule was classed as inactive.
With `O=C(COc1ccccc1-c1nc(-c2ccccc2)no1)Nc1cccc([N+](=O)[O-])c1`, the “activity change, negative = inhibition” value is inactive: 1.78%.
On to `O=C(c1nc(-c2ccc(Cl)cc2)n2c1CCCCC2)N1CCN(c2ccccc2)CC1`, for which the call was inactive.
As to `CCOC(=O)c1c(-c2ccccc2)oc2ccc(N(C(C)=O)S(=O)(=O)c3ccc(CC)cc3)cc12`, the “activity change, negative = inhibition” value is inactive: -24.3%.
Consider `COc1ccc(CCNC(=O)C(=O)NCC(c2ccco2)S(=O)(=O)c2cccs2)cc1OC` (stereo not given), for which the “activity change, negative = inhibition” value was inactive: 12%.
On to `CCC(=O)N1CCc2cc(S(=O)(=O)NC(CC(C)C)C(=O)NCCc3ccccc3)ccc21` (stereo not given), for which the “activity change, negative = inhibition” value was inactive: 19.6%.
Turning to `CCc1ccc(OCC(=O)N(Cc2ccco2)Cc2ccco2)cc1`, the outcome was inactive.
Turning to `COc1ccc(C2=Nn3c(nc4sc(C(=O)Nc5cccc(C)c5)c(C)c4c3=O)SC2)cc1`, the “activity change, negative = inhibition” value was inactive: 3.01%.
Take `COc1ccc(NC(=O)c2ccc3c(c2)c(C)c(C)n3Cc2ccc(F)cc2)c(OC)c1`: the “activity change, negative = inhibition” value was inactive: -6.56%.
Still for that read-out and setting: the same measure for `COc1cccc(CN2C(=O)c3ccccc3Sc3ccc(C(=O)NCCc4ccc(Cl)cc4)cc32)c1`: inactive: 2.52%.
On to `COc1ccc(-c2nn3c(-c4ccc(C)cc4)nnc3c3ccccc23)cc1`, for which the “activity change, negative = inhibition” value is inactive: 5.32%.
The same measure, in the same setting: the same measure for `COc1ccc(NC(=O)c2cc3c([nH]c2=O)CC(c2ccccc2)CC3=O)cc1` (stereo not given): inactive: -5.24%; for `COc1ccc(NC(=O)Cn2c(=O)n(-c3ccc(CC(=O)NCC4CCCO4)cc3)c(=O)c3ccccc32)c(OC)c1` (stereo not given): inactive: 10.5%.
`CCCOc1ccc(OC(=O)c2c(-c3ccccc3Cl)noc2C)cc1`: the “activity change, negative = inhibition” value was inactive: -9.45%.
The same measure, in the same setting: the same measure for `Cc1cccc(-c2noc(-c3ccc(NCC4CCCO4)c([N+](=O)[O-])c3)n2)c1` (stereo not given): inactive: -1.39%; for `CCOC(=O)c1c(C)n(-c2ccccc2)c2ccc(OC(=O)c3ccc(OCC)c(OCC)c3)cc12`: inactive: -7.57%; for `CN(C(=O)c1ccc2c(c1)N(Cc1ccccc1F)C(=O)c1ccccc1S2)C1CCCCC1`: inactive: -5.4%.
Turning to `Cc1cccc(NCc2nnc3n2CCCCC3)c1C`, the call was inactive.
In the case of `COc1ccccc1N1CCN(c2nc3ccc(C)cc3nc2-n2nc(C)cc2C)CC1`, the “activity change, negative = inhibition” value is inactive: 1.62%.
Still for that read-out and setting: the same measure for `COc1nc(-c2ccc3c(c2)OCO3)n(-c2ccc(NC(=O)CSc3ccccc3)cc2)n1`: inactive: -4.66%.
On to `Cc1cc(C)cc(OCc2cc(=O)n3cc(C)sc3n2)c1`, for which the “activity change, negative = inhibition” value was inactive: -16%.
With `O=C(C1CCN(c2nc3ccccc3[nH]2)CC1)N1CCN(c2ccccc2)CC1`, the “activity change, negative = inhibition” value was inactive: 0.759%.
`COc1ccccc1NC(=O)CCn1nc(-c2ccccc2)c2ccccc2c1=O`: the molecule was classed as inactive.
Take `O=C(Nc1c(C(=O)N2CCC(N3CCCCC3)CC2)oc2ccccc12)c1c(F)cccc1F`: the “activity change, negative = inhibition” value was inactive: -13.1%.
On to `Cn1cc(S(=O)(=O)c2ccccc2)c(=O)c2cc(F)c(N3CCN(c4ccc(F)cc4)CC3)cc21`, for which the “activity change, negative = inhibition” value is inactive: 8.86%.
Regarding `CN(C)S(=O)(=O)c1ccc2c(c1)N(CC(=O)N1CCCCC1)CCS2`, the “activity change, negative = inhibition” value is inactive: 29.5%.
Consider `Cc1ccc(-c2nnc(Nc3ccc(Cl)cc3)c3ccccc23)cc1S(=O)(=O)N1CCOCC1`, for which the “activity change, negative = inhibition” value is inactive: 0.875%.
The same measure, in the same setting: the result for `COc1cccc(-n2c(SCC(=O)N3CCCCC3)nc3c([nH]c4ccccc43)c2=O)c1` reads inactive: -2.99%.
For the molecule `Cc1ccc(-n2ncc3c(Nc4cccc(C)c4)ncnc32)cc1`, the molecule was classed as inactive.
As to `Cc1cccc(N2CCN(C(=O)c3c(C)oc4nc(C)nc(N5CCCC5)c34)CC2C)c1` (stereo not given), the “activity change, negative = inhibition” value was inactive: -17.3%.
Same read-out and setting: the same measure for `CC(=O)Nc1ccc(NC(=O)C(Cc2ccccc2)N2Cc3ccccc3C2=O)cc1` (stereo not given): inactive: 1.53%.
Take `O=C(Cn1cnc(S(=O)(=O)N2CCCC2)c1)Nc1ccccc1`: the outcome was inactive.
On to `Cc1ccc(NC(=O)Cn2c(=O)n(CCC(=O)NCCc3ccccc3)c(=O)c3ccccc32)cc1`, for which the “activity change, negative = inhibition” value was inactive: 43.3%.
On the same count and under the same terms, the result for `Cc1ccc(Cl)cc1N1CCN(C(=O)c2cn(C)c3ccc(S(=O)(=O)N(C)C4CCCCC4)cc3c2=O)CC1` reads inactive: -0.693%.
In the case of `CCOc1ccc(CCNC(=O)C(C)n2nc(C)n3c(cc4occc43)c2=O)cc1OCC` (stereo not given), the outcome was inactive.
For the molecule `COc1ccc(CNC(=O)CCc2nc3cccnc3n2Cc2ccccc2)cc1`, the “activity change, negative = inhibition” value is inactive: 4.26%.
As to `COc1ccc(NC(=O)c2c(N)c(C(=O)c3ccc(C)cc3)n3ccccc23)cc1OC`, the “activity change, negative = inhibition” value is inactive: -20.1%.
Same read-out and setting: the result for `CC1CCC(N2CC(=O)N(C3CCCC3)C(c3ccc(Cl)cc3)C2=O)CC1` (stereo not given) reads inactive: 0.811%; that for `Cc1ccc(C)c(CN2C(=O)c3ccccc3Sc3ccc(C(=O)NCc4cccs4)cc32)c1`, inactive: 2.15%; that for `O=C(CCc1ccccc1)NCCc1csc(-c2cccc(F)c2)n1`, inactive: -4.61%.
On to `COc1ccc(NC(=O)c2ccc3c(c2)c(C)c(C)n3Cc2ccc(F)cc2)cc1`, for which the “activity change, negative = inhibition” value was inactive: -3.56%.
Take `Cc1ccc(C)c(NC(=O)C2CCN(c3nn4c(=O)cc(C)nc4s3)CC2)c1`: the molecule was called inactive.
For `CCN1CCN(Cc2nc3cc(NC(=O)c4ccccc4[N+](=O)[O-])ccc3n2CC)CC1`, the “activity change, negative = inhibition” value was inactive: -6.04%.
